Experimental data published in PubChem BioAssay AID2147 (National Center for Advancing Translational Sciences (NCATS), 2009).
Several values for one entry are separate records, joined by “and”; a condition that tells them apart may be missing. Equal values may be shown once. In all, about 230,000 compounds went through this assay and about 3,600 (1.6%) were called active. This list was built around the results that the source calls inconclusive (neither active nor inactive); the mix of calls is not that of the screen. Calls follow the shape of the dose curve; as a rule, active = well fitted inhibition curve with a large enough effect (not every such curve was filed as active); inconclusive = small, poorly fitted or top-dose-only effect, or another doubt; inactive = no such curve, though single readings can be large or run the other way. Potencies beside an inconclusive call are fits to weak or partial responses and may not hold up.

target: Lysine-specific demethylase 4E (Homo sapiens) (UniProt B2RXH2); test: qHTS Assay for Inhibitors of Human Jumonji Domain Containing 2E (JMJD2E); conditions: JMJD2E catalytic domain, FDH-coupled NADH fluorescence (FDH is formaldehyde dehydrogenase); series mostly up to 57.1 µM
Sequence of UniProt B2RXH2 (B2RXH2 whole entry, looked up, the tested form may be a part): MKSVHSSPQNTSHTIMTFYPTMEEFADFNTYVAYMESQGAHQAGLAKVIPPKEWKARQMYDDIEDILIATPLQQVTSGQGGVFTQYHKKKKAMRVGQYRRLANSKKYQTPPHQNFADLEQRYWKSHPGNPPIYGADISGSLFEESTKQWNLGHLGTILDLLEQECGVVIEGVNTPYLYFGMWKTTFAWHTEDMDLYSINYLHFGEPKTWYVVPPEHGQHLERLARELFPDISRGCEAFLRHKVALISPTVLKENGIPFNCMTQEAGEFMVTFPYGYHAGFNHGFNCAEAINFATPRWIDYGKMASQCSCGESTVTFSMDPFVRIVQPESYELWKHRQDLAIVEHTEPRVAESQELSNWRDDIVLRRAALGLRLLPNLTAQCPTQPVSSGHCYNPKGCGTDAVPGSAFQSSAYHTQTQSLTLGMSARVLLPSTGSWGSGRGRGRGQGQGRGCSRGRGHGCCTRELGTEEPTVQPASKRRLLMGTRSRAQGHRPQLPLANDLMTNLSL
Also: nearly all actives have a fitted effect of over 50% in size.
Potency is read from the fitted curve at half-maximal effect; tags tell the direction and shape of the fitted curve.

SMILES | Potency
Cc1ccc2[nH]c(=O)c3cc(C(=O)N(CCCOC(C)C)Cc4ccco4)sc3c2c1 | inconclusive: 25.1 µM [inhibitor, partial curve]
Cc1ccccc1/C=C/C1=NCCN1 | active: 17.8 µM
Cc1ccc(C)c2[nH]c(=O)c(CCNC(=O)C(C)(C)C)cc12 | inconclusive: 35.5 µM [inhibitor, single point]
Cc1cc(C(=O)Nc2c(F)c(F)c(F)c(F)c2F)n(-c2ccccc2)n1 | inactive
C=CCN(CC=C)S(=O)(=O)c1ccc(C(=O)Nc2nnc(CSC)o2)cc1 | inconclusive: 39.8 µM [inhibitor, single point]
CCn1c(NCc2cc(Br)ccc2NS(=O)(=O)c2ccc(C)cc2)nc2ccccc21 | inactive
CCOC(=O)CSc1nc2ccc(N3CCOCC3)cc2c(=O)n1Cc1ccc2c(c1)OCO2 | inconclusive: 31.6 µM [inhibitor, partial curve]
CC(=O)n1cc([C@@H]2C=C(C(=O)N3CCN(Cc4ccc5c(c4)OCO5)CC3)O[C@H](OCCCCO)C2)c2ccccc21 | inactive
C/C=C/c1ccc(OCCCn2cncn2)c(OC)c1 | inconclusive: 25.1 µM [inhibitor, single point]
COc1cc(OC)cc(C(=O)N(Cc2cc3cc(C)ccc3[nH]c2=O)C(C)C)c1 | inactive
COc1ccc(/C=N/NC(=O)c2cc(O)c(O)c(O)c2)cc1Cn1cc([N+](=O)[O-])cn1 | active: 2.24 µM
CCOC(=O)C1CSc2[nH]c(=O)sc2C1c1ccccc1 (centres undefined) | inactive
Cc1ccc(NC(=S)NNC(=O)CSc2nnc(-c3ccc(Cl)cc3)n2C2CCCCC2)cc1 | inconclusive: 39.8 µM [inhibitor, single point]
O=C(NCCCN1CCOCC1)c1cc(-c2ccc3c(c2)OCO3)nc2ccccc12 | inconclusive: 35.5 µM [inhibitor, single point]
O=C(Nc1ccc(O)c(C(=O)O)c1)Oc1ccccc1 | inconclusive: 31.6 µM [inhibitor, partial curve]
COC(=O)CN1C(=S)N(c2ccc(Cl)cc2)C(=O)C1CC(=O)Nc1ccc(F)cc1 (centres undefined) | inactive
O=C(Cn1c(-c2cncs2)nc2ccccc21)NC1CCCC1 | inconclusive: 39.8 µM [inhibitor, single point]
CCOC(=O)c1sc2ncn(/N=C/N(C)C)c(=O)c2c1C | inconclusive: 31.6 µM [inhibitor, single point]
COC(=O)c1ccc2c(=O)[nH]c(CSc3nnc(C(F)(F)F)n3C)nc2c1 | inconclusive: 39.8 µM [inhibitor, single point]
COc1ccc(N)cc1-n1c(C)ccc1C | inconclusive: 22.4 µM [inhibitor, partial curve]
CS(=O)(=O)Oc1ccc2c(c1)O/C(=C\C=C\c1ccccc1)C2=O | inconclusive: 39.8 µM [inhibitor, single point]
C/C(=C\c1ccccc1)CN1CCC(C(=O)N2CCCC(C)C2)CC1 (centres undefined) | inconclusive: 35.5 µM [inhibitor, single point]
O=C(c1cccc(Cl)c1)N1CCCC(C(=O)N2CCCCCC2)C1 (centres undefined) | inactive

SMILES | Potency
Cc1cccc2sc(NC(=O)c3ccc(NS(=O)(=O)c4cccs4)cc3)nc12 | inconclusive: 31.6 µM [inhibitor, partial curve]
O=C(Cn1c(=O)n(CCC(=O)N2CCc3ccccc3C2)c(=O)c2ccccc21)NCC1CCCO1 (centres undefined) | inconclusive: 31.6 µM [inhibitor, single point]
O=C1c2ccncc2C(=O)N1c1cccc(Cl)c1 | inconclusive: 20 µM [inhibitor, single point]
COc1ccc2c(c1)CCc1c-2nc2ccccc2c1N1CCOCC1 | inconclusive: 31.6 µM [inhibitor, partial curve]
CCNC(=O)Oc1ccc[nH]c1=O | inconclusive: 17.8 µM [inhibitor, partial curve, poor fit]
Cc1ccc(-c2cc(C(=O)NCCCn3ccnc3)c3cc(Br)ccc3n2)o1 | inconclusive: 28.2 µM [inhibitor, partial curve]
COc1ccc(-c2nc3ccccc3c(C(=O)Nc3ccc(S(=O)(=O)Nc4cc(C)on4)cc3)c2C)cc1 | inconclusive: 28.2 µM [inhibitor, single point]
CCn1cc(C(=O)NCC2CCCO2)c2cc(OC)c(OC)cc2c1=O (centres undefined) | inconclusive: 39.8 µM [inhibitor, single point]
O=C(Nc1nc2ccccc2[nH]1)c1ccc(Cl)c([N+](=O)[O-])c1 | inactive
N#Cc1c(-c2cccs2)nc(SCc2ccc(Cl)cc2)[nH]c1=O | inactive
CCC(=O)Nc1ccccc1C(=O)OC(c1ccccc1)c1ccccc1 | inconclusive: 25.1 µM [inhibitor, partial curve]
OCCC1CN(Cc2cccn2-c2cccnc2)CCN1C1CCCC1 (centres undefined) | inactive
Cc1ccc(CCC(=O)Nc2ccc(S(N)(=O)=O)cc2)o1 | inconclusive: 39.8 µM [inhibitor, single point]
Cc1cc(C)cc(NS(=O)(=O)c2ccc3[nH]cc(C(=O)NCc4ccco4)c(=O)c3c2)c1 | inactive
Cc1nn(-c2ccccc2)c(C)c1NC(=O)COc1ccc2ccccc2c1 | inconclusive: 35.5 µM [inhibitor, single point]
CCOC(=O)c1nn(-c2ccc(OCC)cc2)c2nc(-c3ccco3)c(C#N)c(=O)n12 | inconclusive: 3.98 µM [inhibitor, partial curve]
Cc1ccc(C2N(c3ccccc3)C(=S)N3CCCN23)cc1 (centres undefined) | inactive
O=C(O)CCC(=O)Nc1ccc(N2CCCCC2)c(C(=O)O)c1 | inconclusive: 35.5 µM [inhibitor, single point]
O=C(O)CN(c1ccccn1)S(=O)(=O)c1ccc(Cl)cc1 | inconclusive: 31.6 µM [inhibitor, partial curve]
O=c1ccc2ccc(Oc3ccc([N+](=O)[O-])cc3[N+](=O)[O-])cc2o1 | inconclusive: 14.1 µM [inhibitor, partial curve]
CCCCCC(=O)Cc1cc(O)cc2c1C(=O)Oc1cc(O)c(C(=O)O)c(CCCCC)c1O2 | inconclusive: 39.8 µM [inhibitor, single point]
COC(=O)c1sccc1NC(=O)c1cccs1 | inconclusive: 35.5 µM [inhibitor, single point]
Cn1c(=O)c(C(=O)COC(=O)c2cc(C3CC3)nc3ccccc23)c(N)n(Cc2ccccc2)c1=O | inconclusive: 39.8 µM [inhibitor, single point] and inconclusive: 35.5 µM [inhibitor, single point]

SMILES | Potency
Cc1cc(NC(=O)CSc2nc(N)c(NC(=O)c3ccco3)c(=O)[nH]2)no1 | inactive
Nc1ccc2oc3ccccc3c2c1 | inconclusive: 28.2 µM [inhibitor, partial curve]
O=C(Cn1nc(Cc2cccnc2)c2ccccc2c1=O)Nc1ccccc1F | inactive
COc1cccc(-c2nnc(N)o2)c1 | inconclusive: 25.1 µM [inhibitor, single point]
CCOC(=O)N1CCN(CC(=O)Nc2c(C(=O)OC)[nH]c3ccccc23)CC1 | inconclusive: 35.5 µM [inhibitor, single point]
NC(=O)N1CCC2(CC1)NC(=O)N(c1ccccc1)N2 | inconclusive: 35.5 µM [inhibitor, single point]
COc1ccc(OC)c(N(CC(=O)Nc2cccnc2)S(C)(=O)=O)c1 | inactive
CC(C)CC(=O)c1c[nH]c(C(=O)NCC2CCCO2)c1 (centres undefined) | inactive
Cc1nc(N2CCOCC2)c2nc(-c3ccccc3)n(CCCN(C)C)c2n1 | inconclusive: 28.2 µM [inhibitor, partial curve]
CCc1ccc(S(=O)(=O)c2n[nH]n3c2nc(=O)c2ccccc23)cc1 | inconclusive: 28.2 µM [inhibitor, partial curve]
Cc1c2cccn2cc[n+]1C | inconclusive: 28.2 µM [inhibitor, partial curve]
COc1ccc(-c2cc(-c3cccs3)c(C#N)c(SCC(=O)NCc3ccco3)n2)cc1 | inconclusive: 28.2 µM [inhibitor, partial curve]
Cc1[nH]c2ccccc2c1CN1CCc2ccccc2C1 | inconclusive: 39.8 µM [inhibitor, single point]
O=C(Nc1ccc2nsnc2c1)N1CCCCC1 | inconclusive: 25.1 µM [inhibitor, partial curve]
CCOC(=O)CSc1nnc(CSc2nc(C)cc(C)n2)n1Cc1ccco1 | inactive
Oc1ccccc1/C=N/Nc1cccc2cccnc12 | inconclusive: 28.2 µM [inhibitor, single point]
Cc1ccc(S(=O)(=O)NNC(=O)c2ccccc2O)cc1 | inactive
Cc1ccc2c(c1)c1ncn(Cc3ccc(F)cc3)c(=O)c1n2C | inconclusive: 35.5 µM [inhibitor, partial curve]
COc1cc(C(CCN2CCCC2)c2c(OC)cc(OC)c3c(-c4ccccc4)cc(=O)oc23)cc(OC)c1OC (centres undefined) | inactive
COC(=O)c1[nH]c2cccc(OC)c2c1NC(=O)CCN1CCN(c2cccc(Cl)c2)CC1 | inconclusive: 25.1 µM [inhibitor, partial curve]
COc1ccc(OC)c2c1CCC2=O | inconclusive: 31.6 µM [inhibitor, partial curve]
O=C(OCc1nnc(-c2ccccc2)o1)C1CC(=O)N(Cc2ccco2)C1 (centres undefined) | inactive
COc1ccc(S(=O)(=O)N2N=C(c3ccc(NS(C)(=O)=O)cc3)CC2c2ccco2)cc1 (centres undefined) | inconclusive: 25.1 µM [inhibitor, single point]
